We go through one molecule from publication PMC5788634, “Cell surface expression of nucleolin mediates the antiangiogenic and antitumor activities of kallistatin” (Oncotarget, 2017).

The assay addresses T1, Recombinant human kallistatin with a his-tag (human, UniProt P29622 21-427).
T1 construct: kallistatin, human, recombinant; The his-tag is named only for the Ni-NTA pull-down; also called his-tagged kallistatin; source: P. pastoris strain GS115, purified (Phenyl Superose and Heparin Sepharose FF chromatography)
T1 sequence (looked up): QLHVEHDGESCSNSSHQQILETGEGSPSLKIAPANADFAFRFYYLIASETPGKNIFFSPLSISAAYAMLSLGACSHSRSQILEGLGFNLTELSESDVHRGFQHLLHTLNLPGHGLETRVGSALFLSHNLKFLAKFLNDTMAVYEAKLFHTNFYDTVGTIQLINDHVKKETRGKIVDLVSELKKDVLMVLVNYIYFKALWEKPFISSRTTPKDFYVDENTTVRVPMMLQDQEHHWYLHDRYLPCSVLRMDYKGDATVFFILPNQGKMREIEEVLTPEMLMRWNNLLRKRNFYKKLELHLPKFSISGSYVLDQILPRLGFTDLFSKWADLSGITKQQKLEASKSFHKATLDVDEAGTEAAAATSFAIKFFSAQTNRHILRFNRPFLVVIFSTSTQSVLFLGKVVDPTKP
Put plainly: SPR; real-time kinetic binding sensorgrams at the indicated concentrations; who was immobilised and the conditions not given. On the technique in general: In SPR one partner is held on a chip, and binding of the other changes the refractive index at the surface.

B1: nucleolin (as used for surface plasmon resonance) (natural protein)
chain: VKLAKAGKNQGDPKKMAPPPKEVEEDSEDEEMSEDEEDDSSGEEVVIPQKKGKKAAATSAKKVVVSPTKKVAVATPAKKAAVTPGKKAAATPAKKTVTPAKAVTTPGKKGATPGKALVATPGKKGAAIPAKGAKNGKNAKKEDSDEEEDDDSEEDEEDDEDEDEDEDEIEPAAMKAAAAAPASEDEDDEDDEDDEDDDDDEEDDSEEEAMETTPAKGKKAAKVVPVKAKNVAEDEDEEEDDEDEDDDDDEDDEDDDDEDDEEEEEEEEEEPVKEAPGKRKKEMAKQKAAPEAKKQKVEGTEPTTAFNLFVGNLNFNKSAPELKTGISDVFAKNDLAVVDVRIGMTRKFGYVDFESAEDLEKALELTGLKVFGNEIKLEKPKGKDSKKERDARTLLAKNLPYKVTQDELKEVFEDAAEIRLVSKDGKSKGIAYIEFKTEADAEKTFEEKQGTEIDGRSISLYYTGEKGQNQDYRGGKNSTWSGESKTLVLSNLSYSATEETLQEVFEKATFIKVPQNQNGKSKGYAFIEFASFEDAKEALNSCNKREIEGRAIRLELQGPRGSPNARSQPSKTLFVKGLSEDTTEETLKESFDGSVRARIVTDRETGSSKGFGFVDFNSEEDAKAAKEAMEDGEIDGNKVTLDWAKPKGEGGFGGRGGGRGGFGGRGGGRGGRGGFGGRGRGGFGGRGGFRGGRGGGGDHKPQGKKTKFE
Consider B1, for which the Kd is 20.4 nM.

Usually Kd stands for the free concentration of one partner at which half of the binding sites on the other are occupied at equilibrium, for simple one-to-one binding.
